# Screen size: about 52,000 compounds; about 4,300 (8.3%) were called active. Rule as the data show it: active = survival mostly below about 52% (no sharp cut-off); inactive = mostly above about 56%. The list shows a part of the results.
# Test system: DeltatarO mutant
# Assay: S. aureus survival, RN4220 and DeltatarO strains – OD600, teichoic acid synthesis inhibitors, primary screen (AID 463173)
# Conditions: S. aureus RN4220 wild type/DeltatarO growth, OD600, 18 h, stronger effect = lower value, screened at 18.75 µg/mL (by protocol)
row,Structure (SMILES),survival
1,Cc1ccc(S(=O)(=O)n2nc(-c3ccccc3)nc2NCc2ccc(Cl)cc2)cc1,inactive: 83%
2,COc1ccc(C2C(=O)N(C3CCCCCC3)CC(=O)N2Cc2ccc(C)cc2)cc1 (stereo not given),inactive: 60%
3,O=C(CSc1nc2c([nH]c3ccccc32)c(=O)n1-c1ccccc1)N1CCc2ccccc21,inactive: 101%
4,S=c1[nH]nc(CCCOc2ccc(Cl)cc2Cl)o1,inactive: 54%
5,CN(C)CCNC(=O)C1CCN(Cc2cc3ccccc3n2Cc2ccccc2)CC1,inactive: 93%
6,CCOc1ccc(S(=O)(=O)c2c(C(=O)c3ccc(CC)cc3)cnc3ccc(C)cc23)cc1,inactive: 74%
7,COc1cc(NC(=O)CCc2c(C)nn(-c3ccc4nnc(C)n4n3)c2C)cc(OC)c1OC,inactive: 80%
8,CCOc1ccc(N2CC(NC(=O)c3cccs3)CC2=O)cc1 (stereo not given),inactive: 76%
9,CCCN(CCC)CCCNC(=O)c1cc2c(-c3ccc(OC)c(OC)c3)nn(C)c2s1,inactive: 160%
10,O=C1S/C(=C\c2ccccc2)C(=O)N1CN1CCOCC1,inactive: 89%
11,Cc1ccc(NC(=O)CN2CCN(S(=O)(=O)c3ccc(C(C)C)cc3)CC2)cc1F,inactive: 54%
12,OC1(c2cccc(C(F)(F)F)c2)CCN(c2ccc(-c3ccccc3)nn2)CC1,inactive: 82%
13,COc1ccc(Nc2nc(N)nc(N)c2S(=O)(=O)c2ccccc2)cc1,inactive: 78%
14,Cc1cn(C)c(CC(=O)N2CCN(c3cccc(Cl)c3)CC2)c1C(=O)O,inactive: 88%
15,Cc1ccc(-n2nc(CO)c(C(=O)NC(C)CCCc3ccccc3)n2)cc1 (stereo not given),inactive: 86%
16,CCc1nn2c(=O)cc(COC(=O)CNC(=O)COc3ccc(C)cc3)nc2s1,inactive: 116%
17,COc1ccc(NC(=O)c2c(NCc3sccc3C)sc3c2CCCC3)c(OC)c1,inactive: 75%
18,CCC(=O)N1CCc2cc(S(=O)(=O)CCC(=O)N3CCN(c4ccc(Cl)cc4)CC3)ccc21,inactive: 55%
19,CC(C)CC(NS(=O)(=O)c1ccc2c(c1)oc(=O)n2C)C(=O)NCc1ccccc1Cl (stereo not given),inactive: 84%
20,CCCn1c(=O)sc2cc(NC(=O)c3ccc(OC)c(Br)c3)ccc21,inactive: 70%
21,CCCOc1ccc(CN(C(=O)Cc2coc3ccc(CC)cc23)C2CCS(=O)(=O)C2)cc1 (stereo not given),inactive: 71%
22,COc1cc(Cl)c(NC(=O)CCS(=O)(=O)c2ccc3c(c2)NC(=O)CO3)c(OC)c1,inactive: 90%
23,CC(C)(C)OC(=O)N1CCC(c2c(C(=O)NC3CCN(Cc4ccccc4)CC3)cnn2-c2ccc(F)cc2F)CC1,active: -2%

row,Structure (SMILES),survival
1,COc1ccc(CCNC(=O)c2ccc3c(c2)CCN3S(=O)(=O)c2ccc(C)cc2)cc1,active: 43%
2,COc1ccc(-c2cc(C(=O)NCCc3ccccc3)c3c(-c4ccccc4)[nH]nc3n2)cc1OC,inactive: 167%
3,Cc1cc(C)nc(NNC(=O)c2ccccc2)n1,inactive: 107%
4,Cc1ccc(NC(=O)C2CCCN(S(=O)(=O)c3ccc4c(c3)oc(=O)n4C)C2)cc1Cl (stereo not given),inactive: 76%
5,O=C1CC(C(=O)Nc2ccccc2)C2(CCCC2)O1 (stereo not given),inactive: 72%
6,CCOc1ccc(NC(=O)C(=O)c2cc(C)n(-c3cc(C)cc(C)c3)c2C)cc1,inactive: 114%
7,Cc1cccc(NC(=O)c2ccc3nc(C(C)C)oc3c2)c1C,inactive: 94%
8,COc1cccc(NC(=O)CSC2=Nc3ccccc3C3=NC(CCC(=O)NCCc4ccccc4)C(=O)N23)c1 (stereo not given),inactive: 58%
9,Cc1ccc(-n2cc(C(=O)Oc3cccc(C)c3)c3ccccc3c2=O)cc1,inactive: 69%
10,CCCN(CCC)C(=O)Cn1c(=O)n(-c2ccc(CC)cc2)c(=O)c2ccc(C(=O)NCCc3ccccc3)cc21,inactive: 90%
11,CCOC(=O)c1ccc(Nc2nc3ccc(C(=O)c4ccccc4)cc3n3c(C)nnc23)cc1,inactive: 109%
12,O=C(Nc1ccc(F)cc1C(F)(F)F)C1CCN(c2ncccn2)CC1,inactive: 76%
13,COc1ccc(S(=O)(=O)c2cn(C)c3ccc(C)cc3c2=O)cc1,inactive: 90%
14,Cc1cccc(NC(=O)c2c(C)cc(C)nc2SCC(=O)c2ccccc2)c1,active: 40%
15,Cc1cc(C)c2oc(C(=O)Nc3ccc(S(=O)(=O)N4CCCCCC4)cc3)cc(=O)c2c1,inactive: 62%
16,Cc1cccc(NC(=O)COC(=O)CCCC2=NS(=O)(=O)c3ccccc3N2)c1,active: -2%
17,CCOc1ccc(S(=O)(=O)Nc2cccc(-c3ccc(OCC)nn3)c2)cc1,inactive: 99%
18,CC(C)(C)C(=O)NC1CCNCC1,inactive: 105%
19,O=C1C2CCCC1C(c1ccc3c(c1)OCO3)NC2c1ccc2c(c1)OCO2 (stereo not given),inactive: 58%
20,COC(=O)CNc1cn[nH]c(=O)n1,inactive: 92%
21,Cc1ccc(/C=C/c2onc(C)c2S(=O)(=O)N2CCC(C(=O)Nc3cc(C)ccc3C)CC2)cc1,inactive: 78%
22,COc1ccccc1CCNC(=O)C(=O)NCC(c1cccs1)S(=O)(=O)c1cccs1 (stereo not given),inactive: 67%
23,COc1cccc(-c2noc(C3CC(=O)N(c4ccc(F)cc4)C3)n2)c1OC (stereo not given),inactive: 92%

row,Structure (SMILES),survival
1,COc1ccccc1CNC(=O)c1cc2sccc2n1Cc1ccc(Cl)cc1,inactive: 78%
2,Cc1ccccc1NC(=O)CSc1nc2ccc(NC(=O)c3cccs3)cc2s1,inactive: 91%
3,CCc1ccc(NC(=O)CCn2c(=O)c3cccn3c3ccccc32)cc1,inactive: 48%
4,COc1ccc(NC(=O)CSc2ccc3nc(-c4ccccc4)cn3n2)c(OC)c1,inactive: 70%
5,Cc1ccc(NC(=O)c2ccc3[nH]c(C)cc(=O)c3c2)cc1,inactive: 75%
6,CSc1cccc(NC(=O)c2cccc(N3CCCS3(=O)=O)c2)c1,inactive: 115%
7,CCOc1ccc(OCC)c(Nc2ccc3cc(S(=O)(=O)N4CCCC4)ccc3n2)c1,inactive: 87%
8,CCC1CN(C(=O)N2CCC(C(=O)NCc3cccc(OC)c3OC)CC2)c2cc(C)ccc2O1 (stereo not given),inactive: 78%
9,CCC1=Nc2cc(C(=O)NC3CCC(C)CC3)ccc2Sc2ccc(C)cc21 (stereo not given),active: 39%
10,COc1ccccc1NC(=O)c1sc2nc(C)c(C(=O)Nc3ccc(C)cc3C)c(-c3ccco3)c2c1N,inactive: 61%
11,CC(C)c1ccc(NC(=O)c2ccc(F)c(S(=O)(=O)N3CCc4ccccc43)c2)cc1,inactive: 83%
12,CCC(C)NC(=O)CSc1nc2n[nH]c(C)c2c(=N)n1-c1cc(Cl)ccc1C (stereo not given),inactive: 82%
13,O=C(C1CCCN(S(=O)(=O)c2cccc3nsnc23)C1)N1CCN(c2ccccc2F)CC1 (stereo not given),inactive: 75%
14,O=C(O)Cn1cnc2ccccc2c1=O,inactive: 109%
15,COc1ccc(NC(=O)CCCN2C(=O)C(c3ccccc3)Oc3cccnc32)c(OC)c1 (stereo not given),inactive: 81%
16,CCc1ccc2oc(C(=O)Nc3cccc(Cl)c3C)cc(=O)c2c1,inactive: 47%
17,CCCNC(=O)CSc1nnc(-c2cccnc2)n1C1CCCCC1,inactive: 104%
18,CC(C)CCN(Cc1ccco1)C(=O)c1cc2c(s1)-c1ccccc1OC2,active: -4%
19,CC1Cc2ccccc2N1C(=O)c1cc2n(n1)C(C(F)(F)F)CC(c1ccco1)N2 (stereo not given),inactive: 99%
20,COc1cc(-c2nnc(SCCOc3ccc(Cl)cc3)o2)cc(OC)c1OC,inactive: 68%
21,O=C(COc1ccccc1)OCc1cc(=O)n2nc(C3CC3)sc2n1,inactive: 77%
22,COc1ccccc1N1CCN(C(=O)C2CCN(S(=O)(=O)Cc3ccccc3)CC2)CC1,inactive: 61%
23,CCC(Cc1ccccc1)NC(=O)CN1C(=O)COc2ccc(S(=O)(=O)N3CCCCCC3)cc21 (stereo not given),inactive: 113%

row,Structure (SMILES),survival
1,Cc1cc2c(cc1NC(=O)c1ccccc1C)n(C)c(=O)c(=O)n2C,inactive: 81%
2,COc1ccc(CCNC(=O)CCCn2c(=O)c3cccn3c3ccccc32)cc1OC,inactive: 61%
3,CCOCCCNC(=O)C1CCN(C(=O)c2cc3sccc3n2C)CC1,inactive: 82%
4,CC(=O)N1CCc2c(sc3c2c(=O)n(Cc2ccccc2)c(=O)n3Cc2ccc(C)cc2)C1,inactive: 106%
5,COC(=O)c1ccc(Cn2cnc3nc4c(cc3c2=O)CCCC4)cc1,inactive: 89%
6,CC(=O)c1ccc(N2CCN(C(=O)C3CCN(S(=O)(=O)c4c(C)noc4/C=C/c4ccc(C)cc4)CC3)CC2)cc1,inactive: 79%
7,Cc1ccc(C(=O)c2c(N)c(-c3nc(-c4ccc5c(c4)OCO5)cs3)c3ccccn23)cc1C,inactive: 94%
8,CCCNC(=O)N1c2ccc(F)cc2CCC1C (stereo not given),inactive: 87%
9,COCc1nn2cc(-c3ccc(C)cc3)nc2s1,inactive: 112%
10,O=C(Nc1nc2c(s1)CCCCCC2)Nc1ccc(F)cc1F,active: 0%
11,CCOc1ccc(NC2=NCCC(=O)N2Cc2cccs2)cc1,inactive: 83%
12,O=C1CSC(=O)N1CC(O)Cn1c2ccccc2c2ccccc21 (stereo not given),inactive: 96%
13,COc1ccc(N2CCN(C(c3ccccc3)c3sc4nc(-c5ccco5)nn4c3O)CC2)cc1 (stereo not given),inactive: 69%
14,Cc1ccc(C(=O)N2CCc3cc(CNS(=O)(=O)c4cccs4)ccc32)cc1,inactive: 80%
15,COc1ccc(-c2noc(CSc3nnc(C)n3-c3ccc(C)cc3)n2)cc1OC,inactive: 59%
16,CN1C(=O)Cc2cc(S(=O)(=O)NCCc3ccc(Cl)cc3)ccc21,inactive: 116%
17,CCN(CC)C(=O)Nc1ccc(I)cc1,inactive: 82%
18,CCOc1ccccc1CNC(=O)C1CCN(S(=O)(=O)c2ccc3[nH]c(=O)ccc3c2)CC1,active: 25%
19,Cc1nc(NCC2CCCO2)c2nnn(Cc3c(F)cccc3Cl)c2n1 (stereo not given),inactive: 59%
20,CC1(C)CC(=O)c2cc(-c3ccccc3)n(CC(=O)O)c2C1,inactive: 93%
21,CCOc1ccccc1NC(=O)Cn1ncc2c(=O)oc3ccc(C)cc3c21,inactive: 94%
